The test system of assay [1] is mouse epithelial cells stimulated by Epidermal Growth Factor, EGF. The experiment in a line: Inhibition of DNA synthesis in mouse epithelial cells stimulated by EGF (3H-thymidine). Particulars: Epithelial cell, 17 h, read-out: inhibitory ratio. Here is the method: Experiments of the Inhibition of DNA Synthesis in Mouse Epithelial Cells Stimulated by Epidermal Growth Factor, EGF
EGF (5 ng/ml) and Reveromycin A were added to a culture of mouse epithelial cells in resting stage, and after 17 hours, ^3 H-labeled thymidine (1 μ Ci/ml) was added to the medium. The radioactivity of the acid insoluble fraction of the cells, which were labeled for 5 hours, was measured by a liquid scintillation counter to determine the amount of DNA synthesis. The ratio of inhibition was calculated by the equation set out below. [formula]

Assay [2] relates to Rat Kidney Cell (NRK) transformed with temperature sensitive oncogene, src^ts. The experiment in a line: Effect on spherical (transformed) src^ts-NRK cells at 32° C. Particulars: read-out: inhibitory ratio. The method, then:
Effect on Rat Kidney Cell (NRK) Transformed with Temperature Sensitive Oncogene, src^ts
When src^ts -NRK cells are cultured at 32° C., spherical transformant cells can be grown. On the other hand, when they are cultured at 39° C., the spherical cells will disappear and only flat adhesive cells can be grown. Reveromycin A was added to the cultured cells at 32° C. and the cells were observed microscopically to count the number of spherical cells. The effectiveness was calculated by the equation set out below. [formula]

`CCCC[C@@]1(OC(=O)CCC(=O)O)CC[C@]2(CC[C@H](C)[C@@H](C/C=C(C)/C=C/[C@H](O)[C@@H](C)/C=C/C(=O)O)O2)O[C@H]1/C=C/C(C)=C/C(=O)O` [Reveromycin A]: in assay [1], the inhibition at 0.5 µg/mL is 15%, the inhibition at 1.7 µg/mL was 48%, the inhibition at 5 µg/mL was determined as 88% and the inhibition at 17 µg/mL worked out at 90%. Further, the inhibition at 50 µg/mL in assay [1] is 99%. In assay [2], the inhibition at 0.5 µg/mL stood at 45%, the inhibition at 1.7 µg/mL was 60%, the inhibition at 5 µg/mL was 95% and the inhibition at 17 µg/mL turned out to be 95%. In assay [2], the inhibition at 50 µg/mL came to 95%.

The record behind these values is US5322854A, “Reveromycin A, method for preparing the same, and antitumor agent and antifungal agent comprising the same” (Rikagaku Kenkyusho, priority 1990, dated 1994).
